Measured values as given in article PMC7758049.
Substitutions are numbered along the chain they refer to. Results are given in words; binding and its absence hold for the method and conditions named. Some results given as binding are weak or reduced against the parent protein; the word gives no strength. Sequences can lack the tags named with a protein.

What was measured:
[1] = molecular target: T1, BD-myc-Imp4 (S. cerevisiae) (UniProt P53941); assay: two-hybrid; Utp2-AD-HA with BD-myc-Imp4 (wild type or mutant); growth on SD-Leu-Trp-His- with 6 mM 3AT
T1 sequence: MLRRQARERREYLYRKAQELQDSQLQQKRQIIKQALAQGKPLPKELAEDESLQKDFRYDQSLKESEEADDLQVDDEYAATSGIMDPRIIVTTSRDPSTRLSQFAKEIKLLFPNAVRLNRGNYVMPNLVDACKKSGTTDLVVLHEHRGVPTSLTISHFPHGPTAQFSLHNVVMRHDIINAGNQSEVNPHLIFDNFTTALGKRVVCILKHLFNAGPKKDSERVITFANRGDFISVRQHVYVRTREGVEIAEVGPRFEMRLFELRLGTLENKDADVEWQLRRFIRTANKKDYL

[2] = molecular target: T2, BD-myc-Imp4-P252L (GAL4BD-c-myc-imp4-P252L) (S. cerevisiae) (UniProt P53941); assay: as above
T2 sequence: T1 sequence with P252L

[3] = molecular target: T3, BD-myc-Imp4-V170F (GAL4BD-c-myc-imp4-V170F) (S. cerevisiae) (UniProt P53941); assay: as above
T3 sequence: T1 sequence with V170F

[4] = molecular target: T1, BD-myc-Imp4 (S. cerevisiae); assay: two-hybrid; Utp2-AD-HA (wild type or mutant) with BD-myc-Imp4; growth on SD-Leu-Trp-His- with 2 mM 3-Amino-1,2,4-triazole (3AT)

binding [1]: binds
binding [2]: no binding
binding [3]: no binding
binding [4]: binds
B1: Utp2-AD-HA (protein, UniProt Q99207 1-810)
chain: MAGSQLKNLKAALKARGLTGQTNVKSKNKKNSKRQAKEYDREEKKKAIAEIREEFNPFEIKAARNKRRDGLPSKTADRIAVGKPGISKQIGEEQRKRAFEARKMMKNKRGGVIDKRFGERDKLLTEEEKMLERFTRERQSQSKRNANLFNLEDDEDDGDMFGDGLTHLGQSLSLEDELANDEEDFLASKRFNEDDAELQQPQRKKTKAEVMKEVIAKSKFYKQERQKAQGIMEDQIDNLDDNFEDVMSELMMTQPKKNPMEPKTDLDKEYDIKVKELQLDKRAAPSDRTKTEEEKNAEAEEKKRELEQQRLDRMNGMIELEEGEERGVEDLDDGFWENEEDYEDDNDGIADSDDDIKFEDQGRDEGFSQILKKKNISISCPRTHDALLDQVKKLDLDDHPKIVKNIIKAYQPKLAEGNKEKLGKFTAVLLRHIIFLSNQNYLKNVQSFKRTQNALISILKSLSEKYNRELSEECRDYINEMQARYKKNHFDALSNGDLVFFSIIGILFSTSDQYHLVITPALILMSQFLEQIKFNSLKRIAFGAVLVRIVSQYQRISKRYIPEVVYFFQKILLTFIVEKENQEKPLDFENIRLDSYELGLPLDVDFTKKRSTIIPLHTLSTMDTEAHPVDQCVSVLLNVMESLDATISTVWKSLPAFNEIILPIQQLLSAYTSKYSDFEKPRNILNKVEKLTKFTEHIPLALQNHKPVSIPTHAPKYEENFNPDKKSYDPDRTRSEINKMKAQLKKERKFTMKEIRKDAKFEARQRIEEKNKESSDYHAKMAHIVNTINTEEGAEKNKYERERKLRGGKK
